# Experimental data reported in ChEMBL document CHEMBL4888484, “Replenishing the malaria drug discovery pipeline: Screening and hit evaluation of the MMV Hit Generation Library 1 (HGL1) against asexual blood stage Plasmodium falciparum ,using a nano luciferase reporter read-out” (2022).
# In all, about 150,000 compounds went through this assay and about 540 (0.36%) showed an effect of 50% or more. The list shows a part of the results.
# System: Plasmodium falciparum
# Test: Primary screen in NF54 nanoGlo assay, in single point, at 2uM, 72h; a lower Z score goes with more inhibition
# Assay type: functional, Erythrocyte
# Settings: timepoint 72 hour
Structure (SMILES),% Inhibition,Z score
Cc1ccnc(NS(=O)(=O)c2ccc(NC(=O)c3ccc4c(c3)OCO4)cc2)n1,-9%,1.18
O=C(CCc1cccc(F)c1F)OC[C@H]1CNC(=O)O1,-8%,1.05
Cc1ccc(NC(=O)[C@@H]2CNC[C@H](C(=O)NC3CCCCCC3)C2)cc1,-5%,1.01
COc1ccccc1/N=C(\NC(=O)c1ccc(F)cc1)N1CCN(c2ccc(F)cc2)CC1,-1%,0.2
CC(C)C1CCN(C(=O)Nc2cccc3ccn(C)c23)CC1,9%,-1.27
O=C(c1cc2cc(F)ccc2[nH]1)N1[C@@H]2CC[C@H]1C[C@@H](O)C2,-8%,1.32
COCC(=O)N[C@@H]1CN(C(=O)Cc2cccc(F)c2)CC[C@@H]1CO,-9%,1.26
COc1cccc(N2CCN(C(=O)Cc3ccccc3)[C@@H](C)C2=O)c1,-5%,0.55
O=C(c1ccoc1)N1CCC2(CCCCC2)C1,-1%,0.11
CCOc1ccc(C(=O)NCc2ccccc2)nn1,-12%,1.37
CC(C)C(=O)N(CC(=O)Nc1nc(-c2ccccc2)cn1-c1ccc(F)cc1)C(C)C,-4%,0.77
COc1ccc(-c2nc(N3CCN(c4ccc(Cl)c(Cl)c4)CC3)nc3nn(C)c(N)c23)c(F)c1,2%,-0.24
Cc1cccc(CNc2cc(C(=O)N3CCc4ccccc4C3)cc(S(=O)(=O)N(C)C)c2)c1,-13%,2.52
CC(C)(C)n1c(=O)c2ccc(F)cc2n1CC(=O)NCc1ccc(Cl)cc1,9%,-1.37
Cc1ccc(CNC(=O)[C@@H]2C[C@H](n3cnnn3)CN2CCCc2ccccc2)cc1,-3%,0.67
CCCN1CCN(C(=O)c2cnn(C)c2)[C@H]2CS(=O)(=O)C[C@H]21,7%,-1.13
CN(CC1CCOC1)C(=O)NC(c1ccccn1)C1CCCC1 (stereo unspecified),-4%,0.75
Cc1cc2c(cc1S(=O)(=O)N1CCC(C(=O)N(Cc3ccccc3)C(C)C)CC1)OCC(=O)N2,-15%,1.72
Cc1cc(F)ccc1CN1CCN(C)[C@]2(CCC(=O)N(CC3CC3)CC2)C1,-17%,1.58
CO[C@@H]1CC[C@@]2(OC)CCN(C(=O)c3cnn(Cc4ccccc4)c3)[C@H]2C1,-1%,0.29
Fc1ccc(-c2nsc3c(N4CCNCC4)ncnc23)cc1,9%,-1.59
CCCOCCN1CCC[C@H](c2cc(N3CCOCC3)nc(C)n2)C1,-7%,0.89
Cc1ccc(NC(=O)CC(=O)N2CC[C@@H](O)C2)c(C)c1,-6%,1.36
CCn1nccc1C=C(C)c1cnccn1,3%,-0.28
CCn1nnc2c(=O)n(Cc3ccccn3)cnc21,1%,-0.11
O=C(NCC[C@H]1CCCCO1)Nc1cccn(CC(F)(F)F)c1=O,-10%,0.99
Fc1cccc(-c2cn[nH]c2C2CCN(CCCC(F)(F)F)CC2)c1,-3%,0.56

Structure (SMILES),% Inhibition,Z score
COc1ccc(C2CC(c3ccc(OC)cc3)n3ncnc3N2C(=O)C(C)C)cc1 (stereo unspecified),30%,-3.38
CCC(CC)NC1CCN(c2ccc(-n3cccn3)cc2)CC1,-13%,1.83
O=C(C[C@@H]1C(=O)Nc2c(F)cccc21)NCc1nnc(C2CC2)s1,-15%,1.5
Clc1ccc2c(c1Cl)CC[C@@H]2Nc1ccc2nnnn2n1,13%,-1.66
O=C(Cc1ccc(O)cc1)N1CCC2(CCC(=O)N(C[C@H]3CCCO3)C2)CC1,-8%,0.97
CCn1c(CCc2cccc(NC(=O)Nc3ccccc3)c2)nc2ccccc21,1%,-0.11
CO[C@H]1C[C@H]2CC(NCc3noc(C4CC4)n3)C[C@H]2C1 (stereo partly specified),-5%,0.83
CN(CCCNC(=O)CN1C(=O)CCn2nc(-c3cccc(Cl)c3)cc21)Cc1ccccc1,0%,0.03
CCC(CC)NC(=O)Nc1nc(-c2ccccc2Cl)co1,-9%,1.68
O=C(Cn1nc2c(N3CCc4ccccc4C3)nccn2c1=O)Nc1ccccc1F,-14%,1.34
COc1cccc(COC(=O)C2=CN(C)S(=O)(=O)N=C2C)c1,2%,-0.43
COC(C)(C)C[C@H](C)NC1(Cc2ccccc2)CC1,-8%,1.6
CCN(CCC#N)C(=O)CNc1cc(F)cc(Br)c1,-12%,1.22
O=C(CC1CCCCC(=O)N1)Nc1ccccc1C(O)C(F)(F)F (stereo unspecified),4%,-0.45
COc1cc(NC(=O)N[C@H]2CCN(c3ccc(F)cc3)C2=O)cc(OC)c1,2%,-0.27
CN1CC2(CCN(c3nccc(N)n3)CC2)C[C@@H](c2ccccc2)C1=O,-9%,1.98
NC(=O)[C@H]1CCN(C(=O)C2=CCCC2)C1,0%,-0.01
Cn1nccc1C(=O)N1CC[C@H](CCOc2ccccc2F)C1,-21%,4.07
Cc1cc(C)c2c(c1)N(Cc1nccnc1C)CCO2,-2%,0.32
CC(=O)N[C@H]1C[C@H]2CN(C(=O)CCc3ccccc3)CC(=O)N2C1,-12%,1.65
Cc1cnn(C)c1S(=O)(=O)N1CC(c2cccc(Cl)c2)C1,-3%,0.58
Cc1ccc(O[C@H]2COCC[C@H]2NC(=O)C2=NN(C)C(=O)CC2)cn1,-1%,0.14
NC(=O)c1ccccc1NC(=O)c1coc(NC(=O)C2CCC2)n1,0%,-0.04
CCCCn1nc(CC(N)=O)nc1[C@@H]1CN(C)c2ccccc2O1,-13%,1.77
Cc1ccc(N2CN(CC(=O)Nc3ccc(F)cc3F)S(=O)(=O)c3cccnc32)cc1,-12%,1.33
O=C(c1ncn2c(=O)n(-c3ccccc3)nnc12)N1CCCC1,34%,-3.86
